# Results reported in the supplement of paper PMC7826260.
# The list shows a part of the results. Viral Rep nickase domains cut single-stranded DNA in vitro at 3 µM enzyme and 37 °C for 1 h; the strands have 90 letters, of which the middle is given. Values are log2 of uncut reads against the no-enzyme pool; the lower, the more was cut; hits are not called. The scaling is to total reads; values above 0 arise when much of the pool is cut.
# Tested on: T1, Rep nickase domain of tomato golden mosaic virus
# T1 sequence (residues 1-124 of Rep, tag left off): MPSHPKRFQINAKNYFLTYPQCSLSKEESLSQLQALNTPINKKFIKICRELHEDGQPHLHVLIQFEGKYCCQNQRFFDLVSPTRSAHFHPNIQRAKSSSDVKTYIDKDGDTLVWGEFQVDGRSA
# Assay: uncleaved DNA left, log2 of reads against the no-enzyme library (log2 ratio); higher = less cleavage (more negative = more Rep cleavage of the k-mer); sequences stand for … in CTCGTCCG…ACCGGAGA
# Experimental: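 A pool of 90-nt single-stranded DNAs with seven random bases just before the constant AC of the nick site (name = the seven bases) was cut by 3 µM recombinant His6-SUMO-tagged Rep nickase domain (300 nM DNA, 50 mM HEPES pH 8.0, 50 mM NaCl, 1 mM MnCl2, 1 h, 37 °C, three replicates). Uncut DNA was amplified and sequenced.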
row,Sequence,uncleaved DNA left (log2)
1,CTAGACG,-0.15
2,ATTCCTG,-0.039
3,TTCGTAC,-0.0875
4,CGACCCC,-0.012
5,TTGATTT,-0.0508
6,AACTCCG,-0.0423
7,GGACCCC,0.14
8,ATCAACT,0.0351
9,GTCGTTT,-0.0403
10,ATCGCAT,-0.00403
11,CTTCCCC,-0.0913
12,CAAGGCG,0.112
13,TCGTCAA,-0.14
14,TACTTAA,-0.0334
15,GTCCTTT,0.0736
16,GGGTCGT,-0.0493
17,CCGGCCT,0.0122
18,TCGGTTC,-0.023
19,TCGCGGT,0.0118
20,GACCCAT,-0.00727

row,Sequence,uncleaved DNA left (log2)
1,AAGCGAC,0.0995
2,CGTAAGA,0.0515
3,GCTGATA,0.242
4,GATTTCC,0.0581
5,CTCAGAG,0.0015
6,CACTTCT,-0.272
7,GGGGGGC,0.0155
8,GCCGGTT,0.223
9,CTGCAAC,-0.221
10,ATGAGAT,0.159
11,GCCGGTA,0.00196
12,CATACAT,-0.116
13,CACTATC,-0.0205
14,ACAGGAT,0.182
15,TAAGCCA,-0.0996
16,TCCGGTA,0.0119
17,TGGCTCG,-0.227
18,AGCGGAC,0.0436
19,TACGCAT,-0.0378
20,CAACTGA,-0.161
